Where “and” joins values, the source holds several entries; their conditions need not be identical. Identical values can stand only once. Out of some 16,000 compounds screened, about 40 (0.2%) were called active. Another 1% or so got no clear call; they are omitted. The call rests on the fitted dose curve; in most records, active means well fitted activation curve with a large enough effect; inconclusive means small, poorly fitted or top-dose-only effect, or another doubt; inactive means no such curve, though single readings can be large or run the other way. The list shows a part of the results. Non-standard residues stand in square brackets, D forms with d. Residues, ends and D or L forms follow the SMILES beside them.
On the % scale 0 is the no-effect control and ±100 the full control effect.

The target of the assay is Rap guanine nucleotide exchange factor 4 (Homo sapiens) (UniProt Q8WZA2). The assay can be described thus: Validation qHTS for agonist of cAMP-regulated guanine nucleotide exchange factor 4 (EPAC2).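 Further: exchange makes BODIPY-GDP fluorescence drop when released from Rap1B; series mostly up to about 150 µM.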 To be noted: EPAC2 Rap1B BODIPY-GDP exchange, fluorescence; activation: active compounds read high. The method in brief: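 Signal normalized against 6.5 mM cAMP as agonist control. Mix of EPAC2 (100 nM), RAP1B-BODIPY-GDP (250 nM) and GDP (50 uM) was read kinetically at 480/540 nm, every 5 min over 30 min, after 5 min room-temperature incubation with compound.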
UniProt Q8WZA2, sequence (Q8WZA2 whole entry, looked up): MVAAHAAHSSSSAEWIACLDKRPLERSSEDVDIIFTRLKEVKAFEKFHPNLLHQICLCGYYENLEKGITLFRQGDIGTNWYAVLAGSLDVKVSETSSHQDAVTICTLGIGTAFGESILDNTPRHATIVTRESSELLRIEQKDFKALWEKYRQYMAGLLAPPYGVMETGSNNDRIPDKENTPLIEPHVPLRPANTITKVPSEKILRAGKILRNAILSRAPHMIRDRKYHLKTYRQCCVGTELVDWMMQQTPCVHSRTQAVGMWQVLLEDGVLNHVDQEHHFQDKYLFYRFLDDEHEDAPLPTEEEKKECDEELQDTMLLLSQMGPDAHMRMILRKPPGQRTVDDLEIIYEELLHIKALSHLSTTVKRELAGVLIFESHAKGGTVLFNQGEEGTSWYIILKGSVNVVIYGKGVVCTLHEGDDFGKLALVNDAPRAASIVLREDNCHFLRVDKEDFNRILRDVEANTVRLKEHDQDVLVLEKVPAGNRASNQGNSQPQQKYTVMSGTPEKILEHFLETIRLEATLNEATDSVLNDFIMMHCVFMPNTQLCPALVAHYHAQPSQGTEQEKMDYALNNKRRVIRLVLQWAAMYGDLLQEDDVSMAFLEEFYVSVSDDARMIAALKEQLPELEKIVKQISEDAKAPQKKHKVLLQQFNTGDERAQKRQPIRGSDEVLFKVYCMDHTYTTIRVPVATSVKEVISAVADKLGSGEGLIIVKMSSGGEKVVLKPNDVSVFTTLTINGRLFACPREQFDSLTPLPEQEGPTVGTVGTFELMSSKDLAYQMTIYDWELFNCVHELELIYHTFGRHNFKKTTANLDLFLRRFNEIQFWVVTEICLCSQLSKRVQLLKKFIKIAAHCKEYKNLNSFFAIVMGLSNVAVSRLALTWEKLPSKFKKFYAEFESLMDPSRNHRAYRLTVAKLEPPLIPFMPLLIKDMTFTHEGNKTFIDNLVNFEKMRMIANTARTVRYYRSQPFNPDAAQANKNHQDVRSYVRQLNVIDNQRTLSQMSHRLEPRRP
With `CN1CCN(C2=Nc3ccccc3Cc3ccccc32)CC1`, the activation was inactive: -13.1%.

`CCCCC/C=C\C/C=C\CCCCCCCC(=O)O`: the activation was inactive: -40.4% and inactive: -6.78%.

`Cc1cccc(N(C)C(=S)Oc2ccc3ccccc3c2)c1`: the activation was inactive: 13.4% and inactive: 0.98%.

Regarding `CC(C)N1C[C@@H](NCc2ccccc2O)C[C@H]1C(=O)N1CCN(c2cccc(C(F)(F)F)c2)CC1`, the activation is inactive: -24.8%.

Turning to `CC1(C)SC2C(NC(=O)C(N)c3ccccc3)C(=O)N2C1C(=O)O` (stereo unspecified), the activation is inactive: -4.06%.

`C=CCNC1=C2C[C@@H](C)C[C@H](OC)[C@H](O)[C@@H](C)/C=C(\C)[C@H](OC(N)=O)[C@@H](OC)/C=C\C=C(/C)C(=O)NC(=CC1=O)C2=O`: the activation was inactive: -6.03%.

In the case of `O=S1(=O)CCO[C@H]2Cc3ccccc3[C@H]2N1Cc1cccc(F)c1`, the activation is inactive: -14.5%.

Take `Cc1cc(=O)cc2oc3cc(N)c(-c4c(C)cc(O)cc4O)c(C)c3nc1-2`: the activation was inactive: -10.3%.

Take `N[C@@H](COP(=O)(O)O)C(=O)O`: the activation was inactive: -4.6% [middle of 4 runs].

For the molecule `CCCCCC(=O)O[C@H](CC(=O)O)C[N+](C)(C)C`, the activation is inactive: -14.7%.

Regarding `Cc1cccc(-c2cc(=O)c3cc(Br)ccc3o2)c1`, the activation is inactive: 5.32%.

For `O=S(=O)(O)c1ccc(Nc2ncnc3c2ncn3[C@@H]2O[C@H](CO)[C@@H](O)[C@H]2O)cc1`, the activation is inactive: 0.857%.

`CCCCc1cc2c(=O)c(C(=O)OC)c[nH]c2cc1OCc1ccccc1`: the activation is inactive: 6.12%.

Take `O=c1[nH]c(=O)n([C@H]2C[C@H](O)[C@@H](CO)O2)cc1I`: the activation was inactive: -3.95%.

Regarding `COc1ccc(CNc2ncnc3ccc(-c4ccoc4)cc23)c(OC)c1`, the activation is inactive: -11.2%.

On to `COc1ccccc1N1CCN(c2nc(CNC(=O)c3ccc(C)c(C)c3)nc3ccccc23)CC1`, for which the activation is inactive: 9.3%.

`CS(C)(=O)=O`: the activation is inactive: -9.51%.

Regarding `CC(=O)SCC(CC(=O)c1ccc(C)cc1)C(=O)O` (stereo unspecified), the activation is inactive: 9.21%.

In the case of `N#Cc1cccc(NC(=O)N2CCCC3(CCN(C(=O)c4cnccn4)CC3)C2)c1`, the activation is inactive: -11.2%.

Take `CCNc1ncc2nc(C)c(=O)n(C)c2n1`: the activation is inactive: -14.1%.

As to `COCc1ccc(CN2CCOc3c(cc(-c4ccc(SC)cc4)cc3OC)C2)o1`, the activation was inactive: 0.901%.

With `O=C(O)C(Oc1ccc2ccc(=O)oc2c1)c1ccccc1` (stereo unspecified), the activation was inactive: -5.81%.

On to `NCCCCC(N)C(=O)NC(Cc1ccc(O)cc1)C(=O)NC(CCCCN)C(=O)O` (stereo not drawn) (H-Lys-Tyr-Lys-OH; configuration not given here), for which the activation is inactive: -16.2%.

`Fc1ccc(Nc2nc(-c3cccnc3)nc3ccccc23)cc1`: the activation is inactive: -22.8%.

For the molecule `O=C(NC[C@H](O)c1ccccc1)c1ccccc1`, the activation is inactive: -6.42%.

On to `C#C[C@]1(O)CC[C@H]2[C@@H]3CCC4=Cc5oncc5C[C@]4(C)[C@H]3CC[C@@]21C`, for which the activation is inactive: -2.24%.

As for `CC(=O)Nc1cc(C(=O)N2CCN(c3ccccc3)CC2C)cc2ncn(CCc3ccccn3)c12` (stereo unspecified), the activation is inactive: -15.4%.

With `COc1ccccc1CNc1ncnc2sc(C(=O)N(C)C(C)C)c(C)c12`, the activation is inactive: -16.4%.

For `O=Cc1ccc(N2CCOCC2)cc1`, the activation is inactive: -6.63%.

Regarding `Cn1cccc1C(=O)N1CCC2(CCCN(Cc3ccccc3)C2)CC1`, the activation is inactive: -10.3%.

For `CCOc1ccc(Cc2nccc3cc(OCC)c(OCC)cc23)cc1OCC`, the activation is inactive: -7.05% and inactive: 8.86%.

For `O=C(Nc1ccc([N+](=O)[O-])cc1Cl)c1cc(Cl)ccc1O`, the activation is inactive: -1.8% and inactive: -18.2% and inactive: -44.2%.

As for `CC(C)NC(=O)N1CC2(CCN(C(=O)c3ccco3)CC2)C1`, the activation was inactive: 4.69%.

In the case of `CC(=O)c1ccccc1-c1ccc2c(c1)CC(CNC(=O)c1ccnc(Cl)c1)O2` (stereo unspecified), the activation was inactive: -11.5%.

Regarding `Cc1ccccc1-c1nc(N2CCOCC2)c2ccccc2n1`, the activation is inactive: -7.21%.

As for `COc1ccc(-c2nc3cnc(N4CCN(C)CC4)nc3n(Cc3ccc(F)cc3)c2=O)cc1`, the activation was inactive: -10.3%.

As for `Cc1cnc(CNc2ccnc(-c3cccc(NS(C)(=O)=O)c3)n2)cn1`, the activation is inactive: -6%.

On to `COc1ccc(CCN(C)CCCOc2ccc(S(=O)(=O)c3[nH]c4ccccc4c3C(C)C)cc2)cc1OC`, for which the activation is inactive: -20.8%.

`COc1cccc(Cn2c(=O)c(-c3cccc(C#N)c3)nc3cnc(Nc4ccccc4)nc32)c1`: the activation was inactive: 29%.

Regarding `CC(C)=CCc1c(O)cc2oc(C)cc(=O)c2c1O`, the activation is inactive: -8.82%.

As to `C=CS(=O)(=O)N(Cc1ccccc1Br)[C@H](CO)Cc1ccccc1`, the activation is inactive: -28.9%.

For `O=C(Nc1ccccc1)N1CCC2(CC1)CCN(C(=O)c1cnccn1)CC2`, the activation was inactive: -10%.

With `COc1cccc(-c2cc(NCc3cccc(C)c3)ncn2)c1`, the activation is inactive: 4.48%.

For the molecule `CCCOC(=O)C1=C(C)CS[C@@H]2[C@H](NC(=O)COc3ccccc3)C(=O)N12`, the activation is inactive: -9.76%.

On to `COc1ccc2ccccc2c1CN1CCc2nnc(CNC(=O)c3cccc(F)c3)n2CC1`, for which the activation was inactive: -6.81%.

Turning to `N[C@@H](Cc1cc(I)c(O)c(I)c1)C(=O)O`, the activation is inactive: -7.95%.

As for `CC(=O)N1CCC[C@@]2(CCN(c3ncccn3)C2)C1`, the activation is inactive: -5.64%.

Take `O=C(Nc1ccc(S(=O)(=O)N2CCOCC2)cc1)c1cc(Cl)ccc1NS(=O)(=O)c1ccc(Cl)s1`: the activation is inactive: -15%.

`CC12CC3CC(C)(C1)CC(N)(C3)C2`: the activation is inactive: 13.3% and inactive: -9.19% and inactive: -40.6%.

For `OCCO[C@@H]1[C@@H](O)[C@H](O)[C@@H](CO)O[C@@H]1O`, the activation is inactive: -14.4%.

Turning to `CSCC[C@H](C=O)NC(=O)[C@H](CC(C)C)NC(=O)[C@H](CC(C)C)NC(C)=O` (Ac-Leu-Leu-[dM]-aldehyde), the activation is inactive: -15.8%.

As to `COc1cc(-c2c(OC)cccc2OC)cc2c1OCCN(C(=O)CCn1nc(C)cc1C)C2`, the activation was inactive: -16.4%.

For the molecule `CCCCCCCC[N+](C)(C)CCCCCCCC`, the activation is inactive: -22% and inactive: -6.82%.

As for `Cc1c(C(=O)N2CCN(C(C)C)CC2)sc2ncnc(NCc3ccco3)c12`, the activation was inactive: 2.1%.

In the case of `COc1ccc(C(=O)N2CCC3(CC2)CCN(c2ccncc2)CC3)cc1`, the activation is inactive: -15.3%.

As to `CS(=O)(=O)OCCCNCCCOS(C)(=O)=O`, the activation was inactive: -17.3%.

As to `COC(=O)N1CCC2(CCN(Cc3ccccc3OC)CC2)CC1`, the activation was inactive: -5%.

In the case of `O=C(c1ccc(F)c(F)c1)N1CCOc2ccc(CN3CCN(Cc4ccccn4)CC3)cc2C1`, the activation is inactive: -0.854%.

In the case of `O=C(NCCc1ccccc1)[C@@H]1CC=C[C@@H]2CCN(Cc3ccccc3)C(=O)[C@@H]21`, the activation is inactive: -13.8%.

Regarding `CC/C=C\C/C=C\C/C=C\C/C=C\C/C=C\C/C=C\CCC(=O)O`, the activation is inactive: 9.44% and inactive: -2.86% and inactive: 0.0557%.

`CSCCC(N)C(=O)NC(CC(C)C)C(=O)NC(Cc1ccccc1)C(=O)O` (stereo unspecified): the activation was inactive: -5.88%.

Consider `COc1ccc(-c2cc3ccccc3c(=O)o2)cc1`, for which the activation is inactive: -37.6%.

As for `O=C(O)CCCCCCCCc1cn(CC2CCCCC2)nn1`, the activation was inactive: 1.29%.

For `C[C@]12CCC(=O)C=C1CCC1C2C(O)C[C@]2(C)C1CC[C@]2(O)C(=O)COC(=O)CCC(=O)O` (stereo partly specified), the activation is inactive: -1.56%.

For `OC[C@H]1NC[C@@H](O)[C@@H](O)[C@H]1O`, the activation is inactive: 1.88%.

For the molecule `CCCCC[C@H]1CN(Cc2ccc(OC)cc2)C(=O)[C@@H]1CC(=O)NCc1ccccc1`, the activation was inactive: -26.5%.

Consider `Nc1nc2c(nc(Br)n2C2OC(CO)C(O)C2O)c(=O)[nH]1` (stereo unspecified), for which the activation was inactive: 8.69%.

For `O=C1CCN(CCc2ccccc2)CCN1[C@H](CSc1ccccc1)Cc1ccccc1`, the activation was inactive: -18.1%.

For the molecule `O=C(Oc1ccccc1)N1CCC2(CC1)CCN(c1ccccc1)CC2`, the activation was inactive: 6.13%.

On to `COCC(=O)N1CCC2(CCCN(Cc3nccs3)C2)CC1`, for which the activation is inactive: -1.63%.

Take `Cc1ccc2nc(SCC(=O)NCC3Cc4cc(-c5ncccc5C)ccc4O3)[nH]c2c1` (stereo unspecified): the activation was inactive: -23.7%.

Consider `CN1CCCN=C1/C=C/c1cccs1`, for which the activation was inactive: 0.422%.

For `CC(=O)N1CCN(c2nc3cc(C)ccc3cc2CN(C(=O)c2cccc3ccccc23)C2CC2)CC1`, the activation was inactive: -3.13%.

As to `C[C@@H](CSc1ccc(Br)cc1)CN1CC[C@H](NC(=O)OCc2ccccc2)CCC1=O`, the activation is inactive: -41%.

For the molecule `CO[C@H]1C[C@@H]2CC[C@@H](C)[C@@](O)(O2)C(=O)C(=O)N2CCCC[C@H]2C(=O)O[C@H]([C@H](C)C[C@@H]2CC[C@@H](OC(=O)C(C)(CO)CO)[C@H](OC)C2)CC(=O)[C@H](C)/C=C(\C)[C@@H](O)[C@@H](OC)C(=O)[C@H](C)C[C@H](C)/C=C/C=C/C=C/1C`, the activation was inactive: -34.6%.

Take `COC(=O)c1cc(CNC(=O)c2cccc3ccccc23)cc(NC(=O)c2ccccc2OC)c1`: the activation was inactive: 4.35%.

Regarding `O=C(C[n+]1cccc2cccc(O)c21)c1ccc(Br)cc1`, the activation is inactive: -11.2%.

Take `CCC[C@@H]1C[C@@H](C(=O)N[C@@H]([C@H]2O[C@H](SC)[C@H](O)[C@@H](O)[C@H]2O)[C@@H](C)O)N(C)C1`: the activation was inactive: -8.27%.

Consider `COc1ccc(CN2CCOc3ccc(CN4CCC(O)(c5cccnc5)CC4)cc3C2)c(C)c1C`, for which the activation was inactive: -5.48%.

Turning to `COc1ccc(C(=O)N2CCC3(CCCN(c4ccccn4)C3)CC2)cc1`, the activation is inactive: 0.0532%.

As to `COc1ccccc1CCNc1ncnc2sc(C(=O)N3CCCCC3)c(C)c12`, the activation is inactive: -7.43%.

These data come from PubChem BioAssay AID1645887 (National Center for Advancing Translational Sciences (NCATS), 2021).
